# The supplement of paper PMC8728848
# The other results are listed elsewhere or left out.
# What was measured:
# Assay in all cases: glycan array binding signal (z-score within array); higher = stronger binding
# Conditions in all cases: glycan notation: IUPAC condensed, linker removed
# Neu5Ac(a2-6)GalNAc = target: Neu5Ac(a2-6)GalNAc
# Method in brief: (§1)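 Columns mapping to the same glycan were averaged after glycan names were converted to IUPAC-condensed notation. The data come from 3228 arrays in the Consortium for Functional Glycomics database, limited to those with an available protein sequence. Binding is reported as a within-array Z-score averaged across arrays of one protein sequence and across linkers.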
# [1] = target: Neu5Ac(a2-6)GalNAc(b1-4)GlcNAc
# Method in brief: as §1
# [2] = target: Neu5Ac(a2-6)GlcNAc(b1-4)GlcNAc
# Method in brief: as §1
# [3] = target: Neu5Ac(a2-6)GlcNAc(b1-4)GlcNAc(b1-4)GlcNAc
# Method in brief: as §1
# Neu5Ac(a2-8)Neu5Ac = target: Neu5Ac(a2-8)Neu5Ac
# Method in brief: as §1
# [4] = target: Neu5Ac(a2-8)Neu5Ac(a2-3)Gal(b1-4)Glc
# Method in brief: as §1
# [5] = target: Neu5Ac(a2-8)Neu5Ac(a2-3)[GalNAc(b1-4)]Gal(b1-4)Glc
# Method in brief: as §1
# [6] = target: Neu5Ac(a2-8)Neu5Ac(a2-8)Neu5Ac
# Method in brief: as §1
# [7] = target: Neu5Ac(a2-8)Neu5Ac(a2-8)Neu5Ac(a2-3)Gal(b1-4)Glc
# Method in brief: as §1
# [8] = target: Neu5Ac(a2-8)Neu5Ac(a2-8)Neu5Ac(a2-3)[GalNAc(b1-4)]Gal(b1-4)Glc
# Method in brief: as §1
# [9] = target: Neu5Ac(a2-8)Neu5Ac(a2-8)Neu5Ac(a2-8)Neu5Ac(a2-3)[GalNAc(b1-4)]Gal(b1-4)Glc
# Method in brief: as §1
# [10] = target: Neu5Ac(b2-6)Gal(b1-4)GlcNAc
# Method in brief: as §1
# Neu5Ac(b2-6)GalNAc = target: Neu5Ac(b2-6)GalNAc
# Method in brief: as §1
# [11] = target: Neu5Ac9Ac(a2-3)Gal(b1-3)GlcNAc
# Method in brief: as §1
# [12] = target: Neu5Ac9Ac(a2-3)Gal(b1-4)GlcNAc
# Method in brief: as §1
# [13] = target: Neu5Ac9Ac(a2-6)Gal(b1-4)GlcNAc
# Method in brief: as §1
# [14] = target: Neu5Gc(a2-3)Gal(b1-3)GlcNAc
# Method in brief: as §1
# [15] = target: Neu5Gc(a2-3)Gal(b1-3)[Fuc(a1-4)]GlcNAc
# Method in brief: as §1
# Neu5Gc(a2-3)Gal(b1-4)Glc = target: Neu5Gc(a2-3)Gal(b1-4)Glc
# Method in brief: as §1
# [16] = target: Neu5Gc(a2-3)Gal(b1-4)GlcNAc
# Method in brief: as §1
# [17] = target: Neu5Gc(a2-3)Gal(b1-4)[Fuc(a1-3)]GlcNAc
# Method in brief: as §1
# [18] = target: Neu5Gc(a2-6)Gal(b1-4)GlcNAc
# Method in brief: as §1
# Neu5Gc(a2-6)GalNAc = target: Neu5Gc(a2-6)GalNAc
# Method in brief: as §1
# [19] = target: Neu5Gc(b2-6)Gal(b1-4)GlcNAc
# Method in brief: as §1
binder,measurement,setting,value
"MRCL (Homo sapiens), NP_872425.1 (protein) ATKVHFPFHTCDLRIDGDCFMVSSEADTYYRARMKCQRKGGVLAQIKSQKVQDILAFYLGRLETTNEVTDSDFETRNFWIGLTYKTAKDSFRWATGEHQAFTSFAFGQPDNHGLVWLSAAMGFGNCVELQASAAFNWNNQRCKTRNRYICQFAQEHISRWGPGS",glycan array binding signal (z-score),Neu5Ac(a2-6)GalNAc,-0.575
same,glycan array binding signal (z-score),[1],2.86
same,glycan array binding signal (z-score),[2],-0.547
same,glycan array binding signal (z-score),[3],-0.52
same,glycan array binding signal (z-score),Neu5Ac(a2-8)Neu5Ac,-0.294
same,glycan array binding signal (z-score),[4],-0.323
same,glycan array binding signal (z-score),[5],-0.697
same,glycan array binding signal (z-score),[6],-0.413
same,glycan array binding signal (z-score),[7],0.302
same,glycan array binding signal (z-score),[8],0.167
same,glycan array binding signal (z-score),[9],1.56
same,glycan array binding signal (z-score),[10],-0.504
same,glycan array binding signal (z-score),Neu5Ac(b2-6)GalNAc,5.61
same,glycan array binding signal (z-score),[11],-0.498
same,glycan array binding signal (z-score),[12],-0.194
same,glycan array binding signal (z-score),[13],1.66
same,glycan array binding signal (z-score),[14],-0.561
same,glycan array binding signal (z-score),[15],0.542
same,glycan array binding signal (z-score),Neu5Gc(a2-3)Gal(b1-4)Glc,0.027
same,glycan array binding signal (z-score),[16],-0.638
same,glycan array binding signal (z-score),[17],-0.331
same,glycan array binding signal (z-score),[18],0.524
same,glycan array binding signal (z-score),Neu5Gc(a2-6)GalNAc,-0.317
same,glycan array binding signal (z-score),[19],0.163
